The values that follow come from ChEMBL document CHEMBL2321667, “Imidazopyridine-Based Fatty Acid Synthase Inhibitors That Show Anti-HCV Activity and in Vivo Target Modulation” (ACS Med Chem Lett, 2013).

Data set [1] is described as follows: in vitro. The note with it: human, huh-7.
Data set [2] concerns the target T1, Fatty acid synthase (Rattus norvegicus, UniProt P12785).
The subject of a further data set is Hepatitis C virus. Kind of data set: microbe, parasite or virus in culture. The note with it: genotype 1b, Huh-7, 72 h.
In data set [3] the target is Fatty acid synthase (Homo sapiens, UniProt P49327).
Fatty acid synthase (Homo sapiens, UniProt P49327), sequence (P49327 whole entry): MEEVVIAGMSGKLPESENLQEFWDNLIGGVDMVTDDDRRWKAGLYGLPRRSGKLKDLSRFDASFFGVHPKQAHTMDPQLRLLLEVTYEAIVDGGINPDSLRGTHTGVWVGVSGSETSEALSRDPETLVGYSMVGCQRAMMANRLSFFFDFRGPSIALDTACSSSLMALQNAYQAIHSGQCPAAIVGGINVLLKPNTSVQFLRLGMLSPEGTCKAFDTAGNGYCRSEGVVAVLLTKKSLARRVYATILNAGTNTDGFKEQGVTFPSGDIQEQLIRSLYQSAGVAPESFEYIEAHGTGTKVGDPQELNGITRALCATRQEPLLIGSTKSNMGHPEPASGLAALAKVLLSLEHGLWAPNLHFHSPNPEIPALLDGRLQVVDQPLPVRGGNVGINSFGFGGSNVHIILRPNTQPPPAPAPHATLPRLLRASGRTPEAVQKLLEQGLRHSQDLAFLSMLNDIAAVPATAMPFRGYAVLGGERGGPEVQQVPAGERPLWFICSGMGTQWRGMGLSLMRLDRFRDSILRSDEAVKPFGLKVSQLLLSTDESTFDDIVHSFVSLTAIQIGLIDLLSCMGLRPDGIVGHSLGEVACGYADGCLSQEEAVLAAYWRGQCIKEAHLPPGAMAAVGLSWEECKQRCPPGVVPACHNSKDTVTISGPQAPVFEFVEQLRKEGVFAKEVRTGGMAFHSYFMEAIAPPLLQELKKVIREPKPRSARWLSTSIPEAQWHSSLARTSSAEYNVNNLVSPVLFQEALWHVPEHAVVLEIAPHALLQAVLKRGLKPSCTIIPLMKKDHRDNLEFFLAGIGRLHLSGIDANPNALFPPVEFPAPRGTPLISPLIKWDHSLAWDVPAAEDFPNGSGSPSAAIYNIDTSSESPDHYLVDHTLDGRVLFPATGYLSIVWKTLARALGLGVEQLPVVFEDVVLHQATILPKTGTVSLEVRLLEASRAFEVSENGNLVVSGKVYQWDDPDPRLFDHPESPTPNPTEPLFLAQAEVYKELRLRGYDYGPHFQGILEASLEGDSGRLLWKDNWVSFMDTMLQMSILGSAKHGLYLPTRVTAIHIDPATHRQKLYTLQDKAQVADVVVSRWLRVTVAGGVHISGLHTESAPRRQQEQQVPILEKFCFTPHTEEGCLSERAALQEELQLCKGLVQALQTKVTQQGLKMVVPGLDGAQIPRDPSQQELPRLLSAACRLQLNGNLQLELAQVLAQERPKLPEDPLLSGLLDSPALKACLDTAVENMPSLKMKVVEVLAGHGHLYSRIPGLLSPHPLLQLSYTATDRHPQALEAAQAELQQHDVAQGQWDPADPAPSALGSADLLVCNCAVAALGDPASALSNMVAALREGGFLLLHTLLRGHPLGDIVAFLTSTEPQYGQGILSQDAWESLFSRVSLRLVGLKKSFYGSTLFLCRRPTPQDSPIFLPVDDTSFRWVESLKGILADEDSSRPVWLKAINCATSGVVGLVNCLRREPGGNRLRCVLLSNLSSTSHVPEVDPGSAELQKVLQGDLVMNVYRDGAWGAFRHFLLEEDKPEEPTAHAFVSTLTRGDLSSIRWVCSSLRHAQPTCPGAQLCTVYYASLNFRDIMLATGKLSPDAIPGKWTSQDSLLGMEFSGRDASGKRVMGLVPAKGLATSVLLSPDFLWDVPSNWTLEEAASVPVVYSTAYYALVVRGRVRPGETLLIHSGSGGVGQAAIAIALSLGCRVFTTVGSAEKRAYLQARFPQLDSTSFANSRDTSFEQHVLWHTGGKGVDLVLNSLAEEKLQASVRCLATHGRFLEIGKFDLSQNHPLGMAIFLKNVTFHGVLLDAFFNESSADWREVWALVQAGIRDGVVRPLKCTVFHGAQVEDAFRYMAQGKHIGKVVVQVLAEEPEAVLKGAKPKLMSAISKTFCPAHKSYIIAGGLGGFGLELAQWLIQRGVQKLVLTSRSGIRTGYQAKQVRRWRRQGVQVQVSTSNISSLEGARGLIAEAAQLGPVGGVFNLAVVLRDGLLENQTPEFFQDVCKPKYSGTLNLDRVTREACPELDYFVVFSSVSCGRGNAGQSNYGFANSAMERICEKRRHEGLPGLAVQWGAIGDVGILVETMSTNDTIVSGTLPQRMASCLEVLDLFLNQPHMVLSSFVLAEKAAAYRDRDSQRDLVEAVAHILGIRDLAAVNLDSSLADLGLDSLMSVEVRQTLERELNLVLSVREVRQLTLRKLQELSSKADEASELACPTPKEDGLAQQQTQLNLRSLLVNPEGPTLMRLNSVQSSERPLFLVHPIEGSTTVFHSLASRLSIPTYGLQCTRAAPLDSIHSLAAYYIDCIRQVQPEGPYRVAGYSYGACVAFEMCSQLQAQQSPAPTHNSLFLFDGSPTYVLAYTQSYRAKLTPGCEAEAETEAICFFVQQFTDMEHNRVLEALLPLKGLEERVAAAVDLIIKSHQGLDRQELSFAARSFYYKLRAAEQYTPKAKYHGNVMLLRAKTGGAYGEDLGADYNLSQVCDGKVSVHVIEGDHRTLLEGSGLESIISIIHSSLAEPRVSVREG
A short description of data set [4]: in vivo. The note with it: rat, po, 50 mg/kg.
Data set [5] in a line: in vivo. The following applies: rat, iv, 1 mg/kg.
A short description of data set [6]: in vivo. The following applies: rat, iv, 1 mg/kg. The source holds these as a separate data set.
A short description of data set [7]: in vivo. The following applies: Sprague-Dawley, rat, po, 15 mg/kg.
Data set [8] is described as follows: in vivo. The note with it: rat, po, 50 mg/kg. This is another data set of the same source.
The species entered for data set [9] is Rattus norvegicus. Kind of data set: animal or person. The following applies: Sprague-Dawley, po, read-out: INH.
Data set [10] is filed under the species Rattus norvegicus. Kind of data set: animal or person. The note with it: Sprague-Dawley, po, read-out: INH. This is another data set of the same source.
Data set [11] concerns the target T1, Fatty acid synthase. This is another data set of the same source.
Data set [12] is described as follows: in vivo. The following applies: rat, iv, 1 mg/kg. The source holds these as a separate data set.
Data set [13] in a line: in vivo. The note with it: Sprague-Dawley, rat, po, 50 mg/kg.
A short description of data set [14]: in vivo. The note with it: rat, po, 50 mg/kg. The source holds these as a separate data set.
The nature of data set [15]: in vivo. The note with it: rat, iv, 1 mg/kg. This is another data set of the same source.
Data set [16] in a line: in vitro. The note with it: plasma.

Where only a bound is given, the exact number is not on record here.

T1 sequence (P12785 whole entry): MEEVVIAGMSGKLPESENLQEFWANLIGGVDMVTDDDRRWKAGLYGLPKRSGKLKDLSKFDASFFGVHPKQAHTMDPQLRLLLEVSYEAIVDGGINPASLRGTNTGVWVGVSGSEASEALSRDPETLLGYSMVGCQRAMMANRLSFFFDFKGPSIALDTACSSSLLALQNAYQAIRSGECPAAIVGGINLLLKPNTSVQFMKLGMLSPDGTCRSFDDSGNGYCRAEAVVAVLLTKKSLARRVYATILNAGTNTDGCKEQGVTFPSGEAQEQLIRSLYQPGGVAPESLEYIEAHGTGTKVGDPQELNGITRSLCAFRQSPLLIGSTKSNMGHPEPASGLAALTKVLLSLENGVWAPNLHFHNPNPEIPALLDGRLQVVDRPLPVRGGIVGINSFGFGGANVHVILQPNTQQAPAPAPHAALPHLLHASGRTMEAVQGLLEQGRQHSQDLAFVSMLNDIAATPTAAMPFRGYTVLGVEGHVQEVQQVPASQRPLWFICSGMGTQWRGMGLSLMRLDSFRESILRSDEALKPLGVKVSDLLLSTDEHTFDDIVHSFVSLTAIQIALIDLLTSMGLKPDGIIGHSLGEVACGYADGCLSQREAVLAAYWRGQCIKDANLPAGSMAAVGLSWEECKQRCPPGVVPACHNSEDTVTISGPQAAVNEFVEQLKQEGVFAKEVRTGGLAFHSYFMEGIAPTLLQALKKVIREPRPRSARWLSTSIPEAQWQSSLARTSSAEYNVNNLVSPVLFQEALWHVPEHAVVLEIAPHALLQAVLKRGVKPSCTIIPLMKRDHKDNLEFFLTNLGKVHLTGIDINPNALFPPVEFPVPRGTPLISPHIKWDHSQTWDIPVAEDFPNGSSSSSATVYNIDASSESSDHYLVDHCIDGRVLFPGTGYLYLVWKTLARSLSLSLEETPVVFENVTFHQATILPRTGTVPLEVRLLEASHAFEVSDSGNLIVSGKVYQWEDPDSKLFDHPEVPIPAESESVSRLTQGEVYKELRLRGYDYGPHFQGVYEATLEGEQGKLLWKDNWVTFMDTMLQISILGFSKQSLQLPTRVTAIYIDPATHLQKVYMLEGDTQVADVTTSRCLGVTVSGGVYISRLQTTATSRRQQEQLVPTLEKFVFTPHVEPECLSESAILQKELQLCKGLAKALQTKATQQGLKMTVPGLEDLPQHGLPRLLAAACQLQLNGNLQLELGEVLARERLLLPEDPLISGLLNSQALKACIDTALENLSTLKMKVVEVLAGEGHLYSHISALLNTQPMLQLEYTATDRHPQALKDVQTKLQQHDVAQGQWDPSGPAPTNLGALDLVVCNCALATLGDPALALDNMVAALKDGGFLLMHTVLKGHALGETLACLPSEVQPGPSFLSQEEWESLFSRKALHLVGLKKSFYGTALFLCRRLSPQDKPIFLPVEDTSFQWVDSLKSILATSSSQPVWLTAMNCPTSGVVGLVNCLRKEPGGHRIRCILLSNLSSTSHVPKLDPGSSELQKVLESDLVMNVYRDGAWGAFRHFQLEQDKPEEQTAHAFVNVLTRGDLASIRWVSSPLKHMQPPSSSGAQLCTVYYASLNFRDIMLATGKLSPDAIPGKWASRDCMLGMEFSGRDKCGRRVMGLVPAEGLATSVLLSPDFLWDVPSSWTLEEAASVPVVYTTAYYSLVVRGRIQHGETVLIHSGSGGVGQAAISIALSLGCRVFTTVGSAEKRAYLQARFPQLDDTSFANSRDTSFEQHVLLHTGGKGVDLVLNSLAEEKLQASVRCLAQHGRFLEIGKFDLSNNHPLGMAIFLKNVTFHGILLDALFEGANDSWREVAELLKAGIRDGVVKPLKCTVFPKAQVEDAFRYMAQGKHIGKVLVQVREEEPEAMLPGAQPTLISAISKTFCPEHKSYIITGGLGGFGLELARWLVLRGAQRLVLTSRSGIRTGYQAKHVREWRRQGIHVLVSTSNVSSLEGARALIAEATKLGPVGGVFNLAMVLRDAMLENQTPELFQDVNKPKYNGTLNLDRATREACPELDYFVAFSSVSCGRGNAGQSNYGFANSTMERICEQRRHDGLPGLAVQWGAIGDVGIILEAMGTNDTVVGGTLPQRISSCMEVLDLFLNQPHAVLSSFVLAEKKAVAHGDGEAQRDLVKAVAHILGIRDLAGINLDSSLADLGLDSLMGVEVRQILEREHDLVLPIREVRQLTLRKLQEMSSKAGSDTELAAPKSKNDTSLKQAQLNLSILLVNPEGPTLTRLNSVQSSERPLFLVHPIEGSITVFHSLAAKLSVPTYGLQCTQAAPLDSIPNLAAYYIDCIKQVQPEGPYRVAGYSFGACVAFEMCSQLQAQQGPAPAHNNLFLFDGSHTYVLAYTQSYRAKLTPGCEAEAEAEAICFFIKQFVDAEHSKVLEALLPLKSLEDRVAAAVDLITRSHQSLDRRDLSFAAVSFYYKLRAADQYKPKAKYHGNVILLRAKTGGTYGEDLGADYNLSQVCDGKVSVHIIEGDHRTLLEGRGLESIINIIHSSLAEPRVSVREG

For `Cc1cc(C)c(-c2nc3cc(N4CCN(C)CC4)ncc3[nH]2)cc1C(=O)N1CCC(c2ccc(C#N)cc2)CC1`, the CC50 at 72 h in the data set “in vitro [1]” is above 20000 nM. For the same compound, the IC50 against Fatty acid synthase [2] amounted to 3840 nM. The compound also yielded an EC50 in the data set on Hepatitis C virus of 520 nM.
For `Cc1cc(C(=O)N2CCC(c3ccc(C#N)cc3)CC2)cc(-c2nc3cc(N4CCCC4)ncc3[nH]2)c1`, the IC50 at Fatty acid synthase [2] and against Fatty acid synthase [3] was above 50000 nM each time.
As for `Cc1cc(C)c(-c2nc3cc(N4CCCC4)ncc3[nH]2)cc1C(=O)N1CCC(c2ccc(C#N)cc2)CC1`, the CC50 at 72 h in “in vitro [1]” is above 3000 nM. This compound had a bioavailability in the data set “in vivo [4]” of 88%. The same compound came in with a clearance in “in vivo [5]” of 36 mL/min/kg. In addition, the AUC was found to be 460 ng·h/mL in the data set “in vivo [6]” and 18200 ng·h/mL in “in vivo [14]”. The values for the concentration at 8 h in the data set “in vivo [7]” and in “in vivo [13]” were 130 nM and 3400 nM, respectively. The half-life in the data set “in vivo [8]” was 3.2 h; in the data set “in vivo [15]”, 0.7 h. Further, the IC50 was found to be 160 nM against Fatty acid synthase [2] and 62 nM at Fatty acid synthase [11]. Further, the inhibition in vivo at 15 mg/kg in the data set listed under Rattus norvegicus [9] came to 2%. The inhibition in vivo at 50 mg/kg in the data set listed under Rattus norvegicus [10] worked out at 40%. The Vd in “in vivo [12]” was determined as 2 L/kg.
In turn, `Cc1ccc(C(=O)N2CCC(c3ccc(C#N)cc3)CC2)cc1C(=O)Nc1ccc(N2CCCC2)nc1` returned an IC50 against Fatty acid synthase [2] of 28500 nM. In addition, in the data set “in vitro [16]”, the half-life was above 10 h.
`Cc1ccc(C(=O)N2CCC(c3ccc(C#N)cc3)CC2)cc1NC(=O)c1ccc(N2CCCC2)nc1` had an IC50 at Fatty acid synthase [3] of 50 nM.
